Experimental data reported in PubChem BioAssay AID1508642 (National Center for Advancing Translational Sciences (NCATS), 2021).
The whole screen tested about 43,000 compounds, of which about 200 (0.47%) were called active. About 12% were inconclusive and are not listed. The call rests on the fitted dose curve; in most records, active means well fitted cell-killing curve with a large enough effect; inconclusive means small, poorly fitted or top-dose-only effect, or effect the other way; inactive means flat fitted curve, though single readings scatter. This is one part of the list.

Assay: Cell viability qHTS assay in S16 Pmp22-F2sN cells; further: nearly all actives have a fitted effect of over 65% in size
Conditions: S16 Pmp22-F2sN Schwann cells (luciferase reporters placed in the Pmp22 gene) viability, CellTiter-Glo, 24 h; series mostly up to 57.5 µM; activity change, negative = cytotoxicity: at the top concentration
Procedure, shortened: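 S16 Schwann cells carrying the Pmp22-F2sN reporter, seeded in 1536-well format, were exposed to library compounds for 24 h at 37C. Viability was read as CellTiter-Glo luminescence after 15 min at room temperature.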
On the % scale 0 is the no-effect control and ±100 the full control effect.

Structure (SMILES) | activity change, negative = cytotoxicity
CN(C)S(=O)(=O)c1ccc(C(=O)NCCSc2c(-c3ccc(Br)cc3)[nH]c3ccccc23)cc1 | inactive: -29.4%
Cc1c(Cl)cccc1N1CCn2c1nc1c2c(=O)n(CC(=O)O)c(=O)n1C | inactive: -11.4%
O=C(Cn1cc(SCc2ccc(Br)cc2)c2ccccc21)N1CCCCC1 | inactive: -27.3%
Cc1ccc(/C=C(\C#N)C(=O)Nc2ccc(Br)cc2)o1 | inactive: 3.17%
CCC(Sc1ncc(S(=O)(=O)c2ccc(C)cc2)c(=O)[nH]1)C(=O)Nc1cc(C)ccc1C (configuration not stated) | inactive: 9.23%
CCc1ccc(NC(=O)CN2CCN(C3CCCCC3)C(=O)C2=O)cc1 | inactive: 9.16%
Cc1ccc2oc(=O)c(S(=O)(=O)c3ccc(F)cc3)cc2c1 | inactive: 4.39%
CCc1nc2ccc(C(=O)NCc3ccc(N(C)C)cc3)cc2nc1CC | inactive: -27.8%
COc1ccc(NC(=O)c2ccco2)cc1NC(=O)c1ccc(C)c(C)c1 | inactive: 5.34%
CCN(C(=O)CSc1nc2ccccc2n1Cc1ccc(C(=O)OC)cc1)c1ccccc1 | inactive: 0.525%
COc1ccc(CCN2C(=O)NC(NC(=O)c3ccccc3OC)(C(F)(F)F)C2=O)cc1OC (configuration not stated) | inactive: -0.996%
C=C(C)Cn1c(=O)c2c(nc3n2CCN3c2cc(C)cc(C)c2)n(C)c1=O | inactive: 11.3%
COc1ccc(N2CCN(C(=O)C3CCN(Cc4nc(-c5ccc(Cl)cc5)oc4C)CC3)CC2)cc1 | inactive: -1.64%
CN(C)CCNC(=O)CN1N=C(c2ccccc2)CCC1=O | inactive: -1.85%
CCCC(=O)N1CCc2cc(OC)c(OC)cc2C1COc1ccc2c(C)cc(=O)oc2c1 (configuration not stated) | inactive: 1%
COc1ccc2c(c1)CC(C(=O)NCCN1CCN(c3ccccc3F)CC1)CO2 (configuration not stated) | inactive: 5.17%
COc1ccc(CNc2nc(-c3ccc(OC)cc3)cc(C(F)(F)F)n2)cc1 | inactive: -2.5%
COc1ccc(NC(=O)Cn2c(=O)cc(C)c3c(C)nn(C)c32)cc1 | inactive: 0.839%
CCCSc1ncc(Cl)c(C(=O)Nc2ccc(S(=O)(=O)N3CCC(C)CC3)cc2)n1 | inactive: -9.57%
CCOc1ccc(NC(=O)Cn2cc(C(=O)c3ccc(CC)cc3)c(=O)c3cc4c(cc32)OCO4)cc1 | inactive: 13.7%
Cc1ccc(Cl)cc1N1CCN(C(=O)c2cnn(C(C)(C)C)c2C2CCN(C(=O)OC(C)(C)C)CC2)CC1 | inactive: -7.16%
COc1ccc(NC(=O)c2cnc(Nc3ccc(C)c(Cl)c3)c3ccccc23)c(OC)c1 | inactive: 4.44%
Cc1ccccc1CCNC(=O)c1ccc(NC(=O)N2CC(C)Sc3ccccc32)cc1 (configuration not stated) | inactive: -9.14%
O=C(COc1ccc(Cl)cc1)NCC(c1ccco1)S(=O)(=O)c1ccccc1 (configuration not stated) | inactive: 3.5%
COc1ccccc1NC(=O)c1sc2nc3c(c(C(F)(F)F)c2c1N)CN(C(C)=O)CC3 | inactive: -1.48%

Structure (SMILES) | activity change, negative = cytotoxicity
Cc1cc(C)c(NC(=O)CSc2n[nH]c(-c3ccccc3Cl)n2)c(C)c1 | inactive: 1.34%
Cc1nn(-c2ccc(N3CCOCC3)nn2)c(C)c1CCC(=O)NCc1ccccc1 | inactive: -21.3%
CCn1nc(C)c2c(-c3ccccc3)cc(=O)n(C(C)C(=O)Nc3cccc(F)c3)c21 (configuration not stated) | inactive: -4.76%
CCc1ccc(NC(=O)C(=O)NCCc2csc(-c3cccc(F)c3)n2)cc1 | inactive: 6.75%
CSc1nn(Cc2ccccc2C)c(NC(C)=O)c1S(=O)(=O)c1ccc(C)cc1 | inactive: -1.19%
COc1ccc(NC(=O)CCc2nc3c(C)nn(-c4ccc(C)cc4)c3n(C)c2=O)c(OC)c1 | inactive: 1.2%
CCOC(=O)CCn1c(=O)c2cccn2c2cccnc21 | inactive: 3.07%
Cc1ccc2nc(-c3ccsc3)c(Nc3ccc(C(C)C)cc3)n2c1 | inactive: 2.43%
COc1ccccc1C(=O)Nc1ccc2nc(SCC(=O)N3CCCC3)sc2c1 | inactive: -5.93%
COCCNC(=O)CCCn1c(SCC(=O)c2ccc(F)cc2)nc2c(sc3ccccc32)c1=O | inactive: -1.8%
Cc1ccc(NC(=O)/C(C#N)=C\c2ccc(-c3ccc(Cl)cc3)o2)c(C)c1 | inactive: -5.12%
CCOc1ccc(-c2c(C)nn3c(C)c(C(=O)Nc4cccc(Cl)c4C)cnc23)cc1OCC | inactive: -1.58%
Cc1ccc(NC(=O)c2cc(S(=O)(=O)N3CCC(C)CC3)cn2C)cc1Cl | inactive: 0.525%
COCCN1Cc2cccc(C(=O)Nc3ccc(C(=O)OC)cc3)c2C1=O | inactive: 5.03%
Cc1ccccc1NC(=O)c1cc2sccc2n1Cc1ccc(F)cc1 | inactive: 0.811%
CN(c1ccccc1)S(=O)(=O)c1nnc(NC(=O)c2ccco2)s1 | inactive: 2.09%
CCCCCn1c(=O)[nH]c2cc(C(=O)N3CCN(c4cccc(Cl)c4)CC3)ccc2c1=O | inactive: 1.04%
COc1ccc(OC)c(CNC(=O)c2cc(S(=O)(=O)N3CCC(C)CC3)cn2C)c1 | inactive: 2.72%
CCOc1ccccc1NC(=O)C(=O)c1cc(C)n(-c2cccc(C)c2C)c1C | inactive: -2.18%
COc1ccccc1NC(=O)C1=C(C)Nc2nc(SCc3ccccc3F)nn2C1c1ccncc1 (configuration not stated) | inactive: 9.55%
CC(C)Cc1nn2c(=O)cc(COC(=O)c3ccccc3NC(=O)c3cccs3)nc2s1 | inactive: 11.7%
COc1cccc(NC(=O)CCSc2nc(-c3ccco3)cc(C(F)(F)F)n2)c1 | inactive: -25%
CCOc1ccc(CCNC(=O)c2cc3cc4cc(OC)ccc4nc3s2)cc1OCC | inactive: -2.84%
CCc1nn2c(=O)cc(COC(=O)c3cccc(NC(=O)COc4ccccc4)c3)nc2s1 | inactive: -4.9%
COc1ccc(-c2noc(N3CCN(c4ccc(Cl)cc4)CC3)n2)cc1OC | inactive: 2.5%

Structure (SMILES) | activity change, negative = cytotoxicity
COc1ccc(CNC(=O)C2CCN(S(=O)(=O)c3ccc4nc5c(c(C(=O)O)c4c3)CCCC5)CC2)cc1 | inactive: 5.2%
CCc1cccc(C)c1NC(=O)C1CCN(c2nnc(C)c3c(C)n(-c4ccccc4)nc23)CC1 | inactive: -0.0975%
Cc1cccc(NC(=O)C2CCN(S(=O)(=O)c3ccc4[nH]c5c(c4c3)CCCCC5)CC2)c1 | inactive: -15.1%
Cc1cc(C)cc(NC(=O)Cn2cc(C(=O)c3ccncc3)c(=O)c3cc(C)c(C)cc32)c1 | inactive: -1.39%
Nc1nnc(SCC(=O)Nc2cccc(F)c2)s1 | inactive: 0.496%
Cc1ccccc1CN1C(=O)c2ccccc2Sc2ccc(C(=O)O)cc21 | inactive: 4.79%
Cc1ccc(CS(=O)Cc2ccc(C(=O)NCc3ccccc3Cl)o2)cc1 (configuration not stated) | inactive: 0.441%
Cc1ccc(NC(=O)C2CCCN(c3cnccn3)C2)cc1Cl (configuration not stated) | inactive: 11.4%
CC(C)c1ccc(NC(=O)C2CCN(S(=O)(=O)c3ccc(Br)s3)CC2)cc1 | inactive: 8.9%
Cc1ccc(S(=O)(=O)c2nnn3c2nc(NCc2ccccc2)c2sccc23)cc1 | inactive: -1.76%
Clc1ccc(Nc2nc(-c3ccccc3)c3ccccc3n2)c(Cl)c1 | inactive: -0.181%
COc1ccccc1C(=O)Nc1cccc(OCc2cc(=O)n3c(C)csc3n2)c1 | inactive: 0.867%
O=S(=O)(c1cc(Br)c(Br)s1)N1CCN(c2ccccc2)CC1 | inactive: -0.197%
COc1ccc(-c2nc3sc(CCNC(=O)Cc4ccc(Cl)cc4)c(C)n3n2)cc1 | inactive: -22.5%
CCOc1ccc(CCNC(=O)CSc2nc3ccccc3nc2Cc2ccc(C)cc2)cc1OCC | inactive: 12.4%
COc1c(C)cccc1C(=O)Nc1ccc(Cl)c(-c2nc3cc(C)ccc3o2)c1 | inactive: -0.912%
COc1ccc(C(=O)Nc2ccc(N3CCN(c4ccccc4)CC3)c(C(=O)O)c2)cc1 | inactive: 3.67%
CCOc1ccc(CCNC(=O)C(CC(C)C)N2Cc3ccccc3C2=O)cc1OCC (configuration not stated) | inactive: -0.588%
CCN(CC)c1ccc(C(=O)NCc2ccc3c(c2)CCN3C(=O)c2cccc(C)c2)cc1 | inactive: 7.65%
CCOc1ccc(S(=O)(=O)NCCc2csc3nc(-c4ccc(OC)c(OC)c4)nn23)cc1 | inactive: 5.81%
Cc1nc(SCc2cc(=O)c3cccc(F)c3[nH]2)n[nH]1 | inactive: -0.0826%
CCc1ccc(NC(=O)CC2C(=O)NCCN2C(=O)c2ccccc2OC)cc1 (configuration not stated) | inactive: 10.4%
CCOCCc1nn2c(=O)cc(COC(=O)COc3ccc(C)c(C)c3)nc2s1 | inactive: -1.82%
COc1cn(CC(=O)Nc2c(C)cc(C)cc2C)c(CN2CCCCC2)cc1=O | inactive: -3.73%
COc1ccc(NC(=O)Cn2ncc3c(C)n(Cc4cccc(Cl)c4)c(C)c3c2=O)cc1 | inactive: -4.96%

Structure (SMILES) | activity change, negative = cytotoxicity
CC(C)c1ccc(NC(=O)CSc2ncnc3c2sc2ccccc23)cc1 | inactive: -2.06%
Clc1cccc(CSc2nc(NCCc3ccccc3)c3ccccc3n2)c1 | inactive: -17.2%
COc1ccccc1CNCc1ccc(C(=O)O)s1 | inactive: -0.29%
COc1cc2c(cc1NC(=O)COc1ccc(Br)c(C)c1)oc1ccccc12 | inactive: -2.05%
CCC12CN3CC(CC)(CN(C1)C3c1cccc(OC)c1O)C2=O (configuration not stated) | inactive: -3.27%
COc1ccc(-c2nc3ccccc3s2)cc1NC(=O)c1ccc(C#N)cc1F | inactive: 7.33%
CCn1c(C(=O)NCc2ccc(C)cc2)cc2sc(Cl)cc21 | inactive: 26.9%
COc1ccc(-c2c(C)c3ccc(O)c(CN4CCCCC4)c3oc2=O)cc1OC | inactive: 1.27%
Cc1ccc2nc(N(Cc3cccnc3)C(=O)c3ccco3)sc2c1 | inactive: 3.59%
Cc1cccc(N2CCN(C(=O)c3cn(C)c4ccc(S(=O)(=O)N(C)C)cc4c3=O)CC2C)c1 (configuration not stated) | inactive: 9.32%
CCc1ccc(-n2c(SCc3nc(-c4cc(OC)ccc4OC)no3)nnc2-c2ccccc2)cc1 | inactive: -6.49%
COc1ccc(C2=CC(c3ccccc3Cl)n3nc(-c4ccc(C)cc4)nc3N2)cc1 (configuration not stated) | inactive: -12.6%
CCOC(=O)c1c(NC(=O)CCCOc2ccc(C)cc2)sc2c1CCC(C)C2 (configuration not stated) | inactive: 3.73%
CCc1nnc(SCC(=O)Nc2ccc(Cl)cc2F)c2cc3occc3n12 | inactive: 1.68%
CCc1ccc(CNC(=O)c2ccc(CS(=O)c3ccc(Br)cc3)o2)cc1 (configuration not stated) | inactive: -9.36%
CCOC(=O)Cn1c(=O)n(-c2ccccc2OC)c2nc(-c3ccccc3)nc(C(N)=O)c21 | inactive: -2.86%
Cn1c2c(c(=O)n(C)c1=O)C(c1cccc(O)c1)CC(=O)N2 (configuration not stated) | inactive: 24.7%
COc1cccc(NS(=O)(=O)c2ccc3[nH]c4c(c3c2)CCCCCC4)c1 | inactive: -7.38%
COc1ccc(NC(=O)C(NC(=O)Cc2cccs2)c2ccc(OC)cc2)cc1 (configuration not stated) | inactive: 11.4%
CCc1ccc(CN(C(=O)c2ccc(OC)cc2)C2CCS(=O)(=O)C2)cc1 (configuration not stated) | inactive: -11.8%
COc1ccc(-c2onc(C)c2C)cc1S(=O)(=O)N1CCc2ccccc21 | inactive: -29%
CC1CCN(C(=O)CCS(=O)(=O)c2cc3c(cc2Cl)NC(=O)CO3)CC1 | inactive: 13.1%
